Experimental data from the supplement of paper PMC8728848.
Some of the results follow.

Columns and labels:
Assay in all cases: glycan array binding signal (z-score within array); higher = stronger binding
Details in all cases: glycan notation: IUPAC condensed, linker removed
Gal(a1-6)Glc = target: Gal(a1-6)Glc
How it was run: (§1)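 Columns mapping to the same glycan were averaged after glycan names were converted to IUPAC-condensed notation. The data come from 3228 arrays in the Consortium for Functional Glycomics database, limited to those with an available protein sequence. Binding is reported as a within-array Z-score averaged across arrays of one protein sequence and across linkers.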

Gal(b1-2)Gal = target: Gal(b1-2)Gal
How it was run: as §1

Gal(b1-3)Gal = target: Gal(b1-3)Gal
How it was run: as §1

Gal(b1-3)GalNAc = target: Gal(b1-3)GalNAc
How it was run: as §1

[1] = target: Gal(b1-3)GalNAc(b1-4)Gal(b1-4)Glc
How it was run: as §1

[2] = target: Gal(b1-3)GalNAc(b1-4)[Neu5Ac(a2-3)]Gal(b1-4)Glc
How it was run: as §1

Gal(b1-3)GlcNAc = target: Gal(b1-3)GlcNAc
How it was run: as §1

[3] = target: Gal(b1-3)GlcNAc(b1-3)Gal(b1-4)Glc
How it was run: as §1

[4] = target: Gal(b1-3)[Fuc(a1-4)]GlcNAc
How it was run: as §1

[5] = target: Gal(b1-3)[GlcNAc(b1-6)]GalNAc
How it was run: as §1

[6] = target: Gal(b1-3)[Neu5Ac(a2-6)]GalNAc
How it was run: as §1

[7] = target: Gal(b1-3)[Neu5Ac(a2-6)]GlcNAc(b1-4)Gal(b1-4)Glc
How it was run: as §1

[8] = target: Gal(b1-3)[Neu5Ac(b2-6)]GalNAc
How it was run: as §1

[9] = target: Gal(b1-4)GalNAc(a1-3)[Fuc(a1-2)]Gal(b1-4)GlcNAc
How it was run: as §1

Gal(b1-4)Glc = target: Gal(b1-4)Glc
How it was run: as §1

Gal(b1-4)Glc6S = target: Gal(b1-4)Glc6S
How it was run: as §1

Gal(b1-4)GlcNAc = target: Gal(b1-4)GlcNAc
How it was run: as §1

[10] = target: Gal(b1-4)GlcNAc(b1-3)Gal(b1-4)Glc
How it was run: as §1

[11] = target: Gal(b1-4)GlcNAc(b1-3)Gal(b1-4)GlcNAc
How it was run: as §1

[12] = target: Gal(b1-4)GlcNAc(b1-3)Gal(b1-4)GlcNAc(b1-3)Gal(b1-4)GlcNAc
How it was run: as §1

[13] = target: Gal(b1-4)GlcNAc(b1-3)Gal(b1-4)[Fuc(a1-3)]GlcNAc(b1-3)Gal(b1-4)[Fuc(a1-3)]GlcNAc
How it was run: as §1

[14] = target: Gal(b1-4)GlcNAc(b1-3)GalNAc
How it was run: as §1

[15] = target: Gal(b1-4)GlcNAc(b1-3)[Gal(b1-4)GlcNAc(b1-6)]GalNAc
How it was run: as §1

[16] = target: Gal(b1-4)GlcNAc(b1-6)GalNAc
How it was run: as §1

[17] = target: Gal(b1-4)GlcNAc(b1-6)[Gal(b1-3)]GalNAc
How it was run: as §1

Gal3S(b1-3)GalNAc = target: Gal3S(b1-3)GalNAc
How it was run: as §1

Gal3S(b1-3)GlcNAc = target: Gal3S(b1-3)GlcNAc
How it was run: as §1

[18] = target: Gal3S(b1-3)[Fuc(a1-4)]GlcNAc
How it was run: as §1

Gal3S(b1-4)Glc = target: Gal3S(b1-4)Glc
How it was run: as §1

Gal3S(b1-4)Glc6S = target: Gal3S(b1-4)Glc6S
How it was run: as §1

Gal3S(b1-4)GlcNAc = target: Gal3S(b1-4)GlcNAc
How it was run: as §1

Gal4S(b1-4)GlcNAc = target: Gal4S(b1-4)GlcNAc
How it was run: as §1

Gal6S(b1-4)Glc = target: Gal6S(b1-4)Glc
How it was run: as §1

Gal6S(b1-4)Glc6S = target: Gal6S(b1-4)Glc6S
How it was run: as §1

GalNAc(a1-3)Gal = target: GalNAc(a1-3)Gal
How it was run: as §1

GalNAc(a1-3)GalNAc = target: GalNAc(a1-3)GalNAc
How it was run: as §1

B1: IRp60B (Homo sapiens), Q9UGN4-3 (protein)
chain: MWLPWALLLLWVPAGDHSELSQNPKQAATQSELHYANLELLMWPLQEKPAPPREVEVEYSTVASPREELHYASVVFDSNTNRIAAQRPREEEPDSDYSVIRKT
glycan array binding signal (z-score) (Gal(a1-6)Glc): -0.425
glycan array binding signal (z-score) (Gal(b1-2)Gal): -0.402
glycan array binding signal (z-score) (Gal(b1-3)Gal): 1.56
glycan array binding signal (z-score) (Gal(b1-3)GalNAc): -0.26
glycan array binding signal (z-score) [1]: 2.68
glycan array binding signal (z-score) [2]: -0.449
glycan array binding signal (z-score) (Gal(b1-3)GlcNAc): 0.72
glycan array binding signal (z-score) [3]: 0.752
glycan array binding signal (z-score) [4]: -0.404
glycan array binding signal (z-score) [5]: -0.429
glycan array binding signal (z-score) [6]: -0.039
glycan array binding signal (z-score) [7]: -0.494
glycan array binding signal (z-score) [8]: 0.306
glycan array binding signal (z-score) [9]: -0.378
glycan array binding signal (z-score) (Gal(b1-4)Glc): 1.38
glycan array binding signal (z-score) (Gal(b1-4)Glc6S): -0.392
glycan array binding signal (z-score) (Gal(b1-4)GlcNAc): -0.346
glycan array binding signal (z-score) [10]: -0.397
glycan array binding signal (z-score) [11]: 0.355
glycan array binding signal (z-score) [12]: 0.061
glycan array binding signal (z-score) [13]: -0.518
glycan array binding signal (z-score) [14]: -0.292
glycan array binding signal (z-score) [15]: 4.42
glycan array binding signal (z-score) [16]: -0.322
glycan array binding signal (z-score) [17]: -0.22
glycan array binding signal (z-score) (Gal3S(b1-3)GalNAc): 0.74
glycan array binding signal (z-score) (Gal3S(b1-3)GlcNAc): -0.322
glycan array binding signal (z-score) [18]: 4.5
glycan array binding signal (z-score) (Gal3S(b1-4)Glc): -0.451
glycan array binding signal (z-score) (Gal3S(b1-4)Glc6S): 1.02
glycan array binding signal (z-score) (Gal3S(b1-4)GlcNAc): -0.281
glycan array binding signal (z-score) (Gal4S(b1-4)GlcNAc): -0.324
glycan array binding signal (z-score) (Gal6S(b1-4)Glc): -0.24
glycan array binding signal (z-score) (Gal6S(b1-4)Glc6S): -0.421
glycan array binding signal (z-score) (GalNAc(a1-3)Gal): 0.046
glycan array binding signal (z-score) (GalNAc(a1-3)GalNAc): -0.293
